# Assay results as given in publication PMC7819943, “Rice protein-binding microarrays: a tool to detect cis-acting elements near promoter regions in rice”.
# Some of the results follow.
# Target: T1, OsWOX13 (Oryza sativa, UniProt Q5QMM3 1-267)
# T1 sequence: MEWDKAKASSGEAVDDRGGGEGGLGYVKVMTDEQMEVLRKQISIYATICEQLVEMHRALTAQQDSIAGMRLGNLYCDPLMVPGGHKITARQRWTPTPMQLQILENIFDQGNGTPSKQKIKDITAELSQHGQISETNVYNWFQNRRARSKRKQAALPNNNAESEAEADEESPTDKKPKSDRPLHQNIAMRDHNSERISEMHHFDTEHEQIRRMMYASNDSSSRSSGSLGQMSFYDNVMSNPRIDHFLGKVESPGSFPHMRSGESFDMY
# Assay: protein-binding microarray (RPBM); PBS, 2% BSA, 51.3 ng/ul salmon testes DNA, 50 uM zinc acetate, 200 nM TF, 25 C, 1 h; high values mean tight binding
# Settings: protein: recombinant; tags: N-terminal polyhistidine and DsRed monomer fusion (pET32a); label: CyDye5-dUTP incorporated in the synthesized complementary strand; 3' TTTTT single-stranded linker to array surface; dsDNA, one strand shown
# Procedure, shortened: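 Using Ni–NTA, transcription factors fused N-terminally to polyhistidine and DsRed were purified after expression in E. coli BL21-CodonPlus. These were incubated at 200 nM with a blocked, double-stranded custom Agilent array for 1 h at 25 °C in a buffer containing 50 µM zinc acetate, and the array was washed. The binding signal is per-feature fluorescence intensity (arbitrary units) on an Axon 4000B scanner.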
row,Sequence,binding signal
1,TATAAACAGGTTGATAAACTAGTCGAACTACGGATATGAACGGAGTCACCTAGTGCAG,4630 fluorescence intensity (a.u.)
2,TATTAAGCCTAATTAAATATCATTAATAAATATTTACTGTCGGAGTCACCTAGTGCAG,3800 fluorescence intensity (a.u.)
3,AATAAACGGGTTGATGACTTGATGTTAAGAAGACCATGAACGGAGTCACCTAGTGCAG,3290 fluorescence intensity (a.u.)
4,ACCACTAATCAATCCTGTTCGGTGCATGCTCTCCCGTAACCGGAGTCACCTAGTGCAG,10700 fluorescence intensity (a.u.)
5,CTTAATTATATGGTTGGGAAAATGCCTTTAATAATCCCTGCGGAGTCACCTAGTGCAG,38200 fluorescence intensity (a.u.)
6,CCTTGACGGTAGCGGTGATGGTAACAGAAAATTGGACGGCCGGAGTCACCTAGTGCAG,3410 fluorescence intensity (a.u.)
7,CAAAGCAATTATTGGCAGCGTGATCGGATTGGCGGAAAACCGGAGTCACCTAGTGCAG,22000 fluorescence intensity (a.u.)
8,ACTACATGACAGGGAATTGTTGTTCCTTGGTGATCAACCACGGAGTCACCTAGTGCAG,3360 fluorescence intensity (a.u.)
9,GCAGGCAATCACACACACATATTTATCACGAGAAAGAGTACGGAGTCACCTAGTGCAG,8850 fluorescence intensity (a.u.)
10,AATAACAATTGATTCGTATACAGGGAGCTTGCGCGTTCGACGGAGTCACCTAGTGCAG,8370 fluorescence intensity (a.u.)
11,CTCCGGCCAATCACCGCCGCTGTCGTTGCGTTCGCCGGCGCGGAGTCACCTAGTGCAG,16700 fluorescence intensity (a.u.)
12,CAAACAAATAACAAATTTGCTTTTAACATAAATTCAGGGGCGGAGTCACCTAGTGCAG,5210 fluorescence intensity (a.u.)
13,TTAATTGATCAATAATCACTGTTCCTTCTCAAGTAGTCAACGGAGTCACCTAGTGCAG,64600 fluorescence intensity (a.u.)
14,GGTAATTGTTGATAGATACGATATTACTAATTCTGGTATTCGGAGTCACCTAGTGCAG,40700 fluorescence intensity (a.u.)
15,GCATATTATAATATTTTGATTAATGATAAATCGAGTAACACGGAGTCACCTAGTGCAG,6600 fluorescence intensity (a.u.)
16,ATATGATTGGAACTAATCCTACCATACCATAACAACTGGACGGAGTCACCTAGTGCAG,30600 fluorescence intensity (a.u.)
17,TCTTTACTGATGTATAATAATTAACATTGCAAATAATTTACGGAGTCACCTAGTGCAG,8470 fluorescence intensity (a.u.)
18,AATCACGGACTAATTAGGCTTAAAAGATTCGTCTCGCGATCGGAGTCACCTAGTGCAG,10700 fluorescence intensity (a.u.)
19,GCCAATGATTGCGACGATATTAGCATGTTATTCCCAAGGTCGGAGTCACCTAGTGCAG,50400 fluorescence intensity (a.u.)
20,TCGTGACTGTTCAGATTTGTGGTATTAGGATATGTTATATCGGAGTCACCTAGTGCAG,10400 fluorescence intensity (a.u.)
21,AAGACTGGCATTACAATTAATCAATCTTAACCCACAGCATCGGAGTCACCTAGTGCAG,26100 fluorescence intensity (a.u.)
22,TTCCGGACGTGTGATTGCGATGAGACGTGTTGCAATATCCCGGAGTCACCTAGTGCAG,7260 fluorescence intensity (a.u.)
23,ATTTTCAGACAATTATTGGCACCACCAGCCTCATCAACGGCGGAGTCACCTAGTGCAG,3670 fluorescence intensity (a.u.)
24,CATGATGTAGATTTGTAGCTAGCTATAGCACAGACTCCAACGGAGTCACCTAGTGCAG,3760 fluorescence intensity (a.u.)
25,TCAAATTTTATTCGTAAAGTTGACTGCAATAGTTTTGTATCGGAGTCACCTAGTGCAG,3460 fluorescence intensity (a.u.)
26,CCCTAATTTTGCAGAACTTTTGGATGGGATTTAAATTCTCCGGAGTCACCTAGTGCAG,12100 fluorescence intensity (a.u.)
27,GATGGTGCTAATTTGAGAGTTCAACTGACATATCTACCAACGGAGTCACCTAGTGCAG,3510 fluorescence intensity (a.u.)

row,Sequence,binding signal
1,GTACGGAAATTTCCAAAGATTAGCTGAAAATTTTGAAGTACGGAGTCACCTAGTGCAG,4440 fluorescence intensity (a.u.)
2,GTGGTATTAACGTATAATTAATTGAGTTTTAATTATTACACGGAGTCACCTAGTGCAG,24000 fluorescence intensity (a.u.)
3,AATTAATGGCAGAATTTACCGATAATGGCCGTCTTTAGATCGGAGTCACCTAGTGCAG,6100 fluorescence intensity (a.u.)
4,CCTAGCAAATTGATCCCTTTCAAGAAAGCCCTGTTTGAACCGGAGTCACCTAGTGCAG,4960 fluorescence intensity (a.u.)
5,TATGATTTATAAATTAATGGATTTAAAGTTTTAAGTTAATCGGAGTCACCTAGTGCAG,43900 fluorescence intensity (a.u.)
6,CAGAATCTATAATTTGTTTTGTTATTAGACTATGTTATATCGGAGTCACCTAGTGCAG,6000 fluorescence intensity (a.u.)
7,ACTATAGTAATTTGTCTCAGACAATTGGTAAAGATTGTGGCGGAGTCACCTAGTGCAG,8100 fluorescence intensity (a.u.)
8,TATCAAATCTGATTTGGTAGATTTATTTAAGGATTTTCATCGGAGTCACCTAGTGCAG,3240 fluorescence intensity (a.u.)
9,ACCATCATCAATTGATAGTTCTTGTTTCTCTAGTAGTAAGCGGAGTCACCTAGTGCAG,9360 fluorescence intensity (a.u.)
10,TGGACAACAATTCTTGATTGAATTTAATTAACGGATAACGCGGAGTCACCTAGTGCAG,28000 fluorescence intensity (a.u.)
11,AGCTAATAATTACTAATTACTAAGTAATACTTCCTCTGTTCGGAGTCACCTAGTGCAG,41700 fluorescence intensity (a.u.)
12,AATATGATTGGATCGAGAAGCTCGTTGGCTCCTTTATCCACGGAGTCACCTAGTGCAG,42500 fluorescence intensity (a.u.)
13,CGACGACTCAATTCATTTATTATAATAAATGAATTAACCCCGGAGTCACCTAGTGCAG,7030 fluorescence intensity (a.u.)
14,TGAATTTTACAAAATCAACATCCAATCATTTTCATTCACACGGAGTCACCTAGTGCAG,6080 fluorescence intensity (a.u.)
15,TCAAAGTGATTGGTGACACTCTACACAACACACAGTTGAACGGAGTCACCTAGTGCAG,28400 fluorescence intensity (a.u.)
16,AACTAGTTAGGCTCCTTATGATTGAATCTGTTTACCCGGACGGAGTCACCTAGTGCAG,14100 fluorescence intensity (a.u.)
17,AAATAACAAATTTGACTGTGAATATACGTATACTAGTTAGCGGAGTCACCTAGTGCAG,19300 fluorescence intensity (a.u.)
18,CAATATTGATTTTGTCTAATAAGTAGTTATTGAACTGAGTCGGAGTCACCTAGTGCAG,35800 fluorescence intensity (a.u.)
19,ACTGCATCAAAATTAGATTTTACAACTACTCCCTCCGTCTCGGAGTCACCTAGTGCAG,3160 fluorescence intensity (a.u.)
20,CCCCACATGATTTGGATGGATCCCTTGATCCGATCACGAACGGAGTCACCTAGTGCAG,9660 ± 457 fluorescence intensity (a.u.)
21,CTAGATTTAACTTTTAGTCTCATTTGATAGGACTCCAACTCGGAGTCACCTAGTGCAG,11100 fluorescence intensity (a.u.)
22,TTTACCCACATTGTTTTGATTGCTAATAAACCGTTACGACCGGAGTCACCTAGTGCAG,8300 fluorescence intensity (a.u.)
23,ATTTAATTAGTGGATAGAATTTAGGTGCACCAAATGCTGGCGGAGTCACCTAGTGCAG,43000 fluorescence intensity (a.u.)
24,TTAATTATACTATAATATACTACCTCAATGCATGAATGTACGGAGTCACCTAGTGCAG,9580 fluorescence intensity (a.u.)
25,AGTCAATTTATTGGTGAATTAGAATCTACGGAAAAGGGGACGGAGTCACCTAGTGCAG,15400 fluorescence intensity (a.u.)
26,TTAGATTGGGACAGTACGTAGGAATTGGTTGATTTCCGGGCGGAGTCACCTAGTGCAG,16300 fluorescence intensity (a.u.)
27,GGTTGTGTTCTTGTTGGCGAGGAGGAGAGAGGGGTGGGGTCGGAGTCACCTAGTGCAG,4540 fluorescence intensity (a.u.)
